# Measurements reported in the supplement of paper PMC8728848.
# The other results are listed elsewhere or left out.
# Tests used:
# Test in all cases: glycan array binding signal (z-score within array); higher = stronger binding
# Details in all cases: glycan notation: IUPAC condensed, linker removed; mutation: E227G
# [1] = target: Gal(b1-4)GlcNAc(b1-3)Gal(b1-4)GlcNAc(b1-2)Man(a1-3)[Gal(b1-4)GlcNAc(b1-3)Gal(b1-4)GlcNAc(b1-2)Man(a1-6)]Man(b1-4)GlcNAc(b1-4)[Fuc(a1-6)]GlcNAc
# How it was run: (§1)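 Glycan array data were curated from 3228 arrays in the Consortium for Functional Glycomics database and kept only where the protein sequence was available. Glycan names were converted to IUPAC-condensed notation, and columns mapping to the same glycan were averaged. The binding signal is a within-array Z-score, averaged across arrays of the same protein sequence at different concentrations or buffers and across linkers. Negative Z-scores can be read as non-binding.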
# [2] = target: Gal(b1-4)GlcNAc(b1-3)Gal(b1-4)GlcNAc(b1-2)[Gal(b1-4)GlcNAc(b1-3)Gal(b1-4)GlcNAc(b1-6)]Man(a1-6)[Gal(b1-4)GlcNAc(b1-3)Gal(b1-4)GlcNAc(b1-2)Man(a1-3)]Man(b1-4)GlcNAc(b1-4)GlcNAc
# How it was run: as §1
# [3] = target: Gal(b1-4)GlcNAc(b1-3)Gal(b1-4)GlcNAc(b1-2)[Gal(b1-4)GlcNAc(b1-3)Gal(b1-4)GlcNAc(b1-6)]Man(a1-6)[Gal(b1-4)GlcNAc(b1-3)Gal(b1-4)GlcNAc(b1-2)Man(a1-3)]Man(b1-4)GlcNAc(b1-4)[Fuc(a1-6)]GlcNAc
# How it was run: as §1
# [4] = target: Gal(b1-4)GlcNAc(b1-3)Gal(b1-4)GlcNAc(b1-3)Gal(b1-4)GlcNAc
# How it was run: as §1
# [5] = target: Gal(b1-4)GlcNAc(b1-3)Gal(b1-4)GlcNAc(b1-3)Gal(b1-4)GlcNAc(b1-2)Man(a1-3)[Gal(b1-4)GlcNAc(b1-3)Gal(b1-4)GlcNAc(b1-3)Gal(b1-4)GlcNAc(b1-2)Man(a1-6)]Man(b1-4)GlcNAc(b1-4)GlcNAc
# How it was run: as §1
# [6] = target: Gal(b1-4)GlcNAc(b1-3)Gal(b1-4)GlcNAc(b1-3)Gal(b1-4)GlcNAc(b1-2)Man(a1-3)[Gal(b1-4)GlcNAc(b1-3)Gal(b1-4)GlcNAc(b1-3)Gal(b1-4)GlcNAc(b1-2)Man(a1-6)]Man(b1-4)GlcNAc(b1-4)[Fuc(a1-6)]GlcNAc
# How it was run: as §1
# [7] = target: Gal(b1-4)GlcNAc(b1-3)Gal(b1-4)GlcNAc(b1-3)Gal(b1-4)GlcNAc(b1-2)[Gal(b1-4)GlcNAc(b1-3)Gal(b1-4)GlcNAc(b1-3)Gal(b1-4)GlcNAc(b1-6)]Man(a1-6)[Gal(b1-4)GlcNAc(b1-3)Gal(b1-4)GlcNAc(b1-3)Gal(b1-4)GlcNAc(b1-2)Man(a1-3)]Man(b1-4)GlcNAc(b1-4)[Fuc(a1-6)]GlcNAc
# How it was run: as §1
# [8] = target: Gal(b1-4)GlcNAc(b1-3)Gal(b1-4)GlcNAc(b1-3)Gal(b1-4)GlcNAc(b1-3)Gal(b1-4)GlcNAc(b1-2)Man(a1-3)[Gal(b1-4)GlcNAc(b1-3)Gal(b1-4)GlcNAc(b1-3)Gal(b1-4)GlcNAc(b1-3)Gal(b1-4)GlcNAc(b1-2)Man(a1-6)]Man(b1-4)GlcNAc(b1-4)GlcNAc
# How it was run: as §1
# [9] = target: Gal(b1-4)GlcNAc(b1-3)Gal(b1-4)GlcNAc(b1-3)Gal(b1-4)GlcNAc(b1-3)Gal(b1-4)GlcNAc(b1-2)Man(a1-3)[Gal(b1-4)GlcNAc(b1-3)Gal(b1-4)GlcNAc(b1-3)Gal(b1-4)GlcNAc(b1-3)Gal(b1-4)GlcNAc(b1-2)Man(a1-6)]Man(b1-4)GlcNAc(b1-4)[Fuc(a1-6)]GlcNAc
# How it was run: as §1
# [10] = target: Gal(b1-4)GlcNAc(b1-3)Gal(b1-4)GlcNAc(b1-3)Gal(b1-4)GlcNAc(b1-3)Gal(b1-4)GlcNAc(b1-2)[Gal(b1-4)GlcNAc(b1-3)Gal(b1-4)GlcNAc(b1-3)Gal(b1-4)GlcNAc(b1-3)Gal(b1-4)GlcNAc(b1-6)]Man(a1-6)[Gal(b1-4)GlcNAc(b1-3)Gal(b1-4)GlcNAc(b1-3)Gal(b1-4)GlcNAc(b1-3)Gal(b1-4)GlcNAc(b1-2)Man(a1-3)]Man(b1-4)GlcNAc(b1-4)[Fuc(a1-6)]GlcNAc
# How it was run: as §1
# [11] = target: Gal(b1-4)GlcNAc(b1-3)Gal(b1-4)GlcNAc(b1-3)Gal(b1-4)GlcNAc(b1-3)Gal(b1-4)GlcNAc(b1-3)Gal(b1-4)GlcNAc(b1-2)Man(a1-3)[Gal(b1-4)GlcNAc(b1-3)Gal(b1-4)GlcNAc(b1-3)Gal(b1-4)GlcNAc(b1-3)Gal(b1-4)GlcNAc(b1-3)Gal(b1-4)GlcNAc(b1-2)Man(a1-6)]Man(b1-4)GlcNAc(b1-4)GlcNAc
# How it was run: as §1
# [12] = target: Gal(b1-4)GlcNAc(b1-3)Gal(b1-4)GlcNAc(b1-3)Gal(b1-4)GlcNAc(b1-3)Gal(b1-4)GlcNAc(b1-3)Gal(b1-4)GlcNAc(b1-2)Man(a1-3)[Gal(b1-4)GlcNAc(b1-3)Gal(b1-4)GlcNAc(b1-3)Gal(b1-4)GlcNAc(b1-3)Gal(b1-4)GlcNAc(b1-3)Gal(b1-4)GlcNAc(b1-2)Man(a1-6)]Man(b1-4)GlcNAc(b1-4)[Fuc(a1-6)]GlcNAc
# How it was run: as §1
# [13] = target: Gal(b1-4)GlcNAc(b1-3)Gal(b1-4)GlcNAc(b1-3)Gal(b1-4)GlcNAc(b1-3)Gal(b1-4)GlcNAc(b1-3)Gal(b1-4)GlcNAc(b1-2)[Gal(b1-4)GlcNAc(b1-3)Gal(b1-4)GlcNAc(b1-3)Gal(b1-4)GlcNAc(b1-3)Gal(b1-4)GlcNAc(b1-3)Gal(b1-4)GlcNAc(b1-6)]Man(a1-6)[Gal(b1-4)GlcNAc(b1-3)Gal(b1-4)GlcNAc(b1-3)Gal(b1-4)GlcNAc(b1-3)Gal(b1-4)GlcNAc(b1-3)Gal(b1-4)GlcNAc(b1-2)Man(a1-3)]Man(b1-4)GlcNAc(b1-4)[Fuc(a1-6)]GlcNAc
# How it was run: as §1
# [14] = target: Gal(b1-4)GlcNAc(b1-3)Gal(b1-4)GlcNAc(b1-3)Gal(b1-4)GlcNAc(b1-3)Gal(b1-4)GlcNAc(b1-3)Gal(b1-4)GlcNAc(b1-3)Gal(b1-4)GlcNAc(b1-2)Man(a1-3)[Gal(b1-4)GlcNAc(b1-3)Gal(b1-4)GlcNAc(b1-3)Gal(b1-4)GlcNAc(b1-3)Gal(b1-4)GlcNAc(b1-3)Gal(b1-4)GlcNAc(b1-3)Gal(b1-4)GlcNAc(b1-2)Man(a1-6)]Man(b1-4)GlcNAc(b1-4)GlcNAc
# How it was run: as §1
# [15] = target: Gal(b1-4)GlcNAc(b1-3)Gal(b1-4)GlcNAc(b1-3)GalNAc
# How it was run: as §1
# [16] = target: Gal(b1-4)GlcNAc(b1-3)Gal(b1-4)GlcNAc(b1-3)[Gal(b1-4)GlcNAc(b1-3)Gal(b1-4)GlcNAc(b1-6)]GalNAc
# How it was run: as §1
# [17] = target: Gal(b1-4)GlcNAc(b1-3)Gal(b1-4)GlcNAc(b1-6)[Gal(b1-3)]GalNAc
# How it was run: as §1
# [18] = target: Gal(b1-4)GlcNAc(b1-3)Gal(b1-4)[Fuc(a1-3)]GlcNAc(b1-3)Gal(b1-4)[Fuc(a1-3)]GlcNAc
# How it was run: as §1
# [19] = target: Gal(b1-4)GlcNAc(b1-3)GalNAc
# How it was run: as §1
# [20] = target: Gal(b1-4)GlcNAc(b1-3)[Fuc(a1-3)GlcNAc(b1-6)]Gal(b1-4)Glc
# How it was run: as §1
# [21] = target: Gal(b1-4)GlcNAc(b1-3)[Gal(b1-4)GlcNAc(b1-6)]Gal(b1-4)GlcNAc
# How it was run: as §1
# [22] = target: Gal(b1-4)GlcNAc(b1-3)[GlcNAc(b1-6)]Gal(b1-4)GlcNAc
# How it was run: as §1
# [23] = target: Gal(b1-4)GlcNAc(b1-6)Gal(b1-4)GlcNAc
# How it was run: as §1
# [24] = target: Gal(b1-4)GlcNAc(b1-6)GalNAc
# How it was run: as §1
# [25] = target: Gal(b1-4)GlcNAc(b1-6)[Gal(b1-3)]GalNAc
# How it was run: as §1
# [26] = target: Gal(b1-4)GlcNAc(b1-6)[Gal(b1-4)GlcNAc(b1-3)]GalNAc
# How it was run: as §1
# Gal(b1-4)GlcNAc6P = target: Gal(b1-4)GlcNAc6P
# How it was run: as §1
# Gal(b1-6)Gal = target: Gal(b1-6)Gal
# How it was run: as §1
# Gal3S(b1-3)GalNAc = target: Gal3S(b1-3)GalNAc
# How it was run: as §1
# Gal3S(b1-3)GlcNAc = target: Gal3S(b1-3)GlcNAc
# How it was run: as §1
binder,measurement,setting,value
"Epa1-NP-mutant-E227G (Candida glabrata), Q6VBJ0 (protein) MILNPALFLNKCVCIYTTLILLLLTNGGYATSSNDISLASKDPTTFPLGCSPDITTPKKGLSMELYSYDFRKKGSYPCWDAAYLDPNYPRTGYKSHRLLAKVDGVTGNINFYYHATKGCTPQLGHLPASYNYPKPLTMTNFTMLLYGYFRPKVTGFHTFTISADDLLFVNFGAGNAFDCCRRDSSADHFGNYQAYAIWGSKTAKDELTVHLDAGVYYPIRLFYNNRGYDGALSFTFKTESNENTVSDFSEYFFSLDDTEEGCPGLISYDSSCASVKTSKIIGIDYHTETPNENLVPITKTIYHLGIPCTGTTTTPLCGSGFYDPLANKCVTINTSSTSSVTKTTSHTTSKEVSFHSSISSQKTLIPKSIPSPYGPIKSQSIPTEMETSSEISSSEYAFSDVISTPSHSPYTKKHSSLNSSSYTSTVIHSLTSYSISQGIFSTSLSEQNITSKSSTDKFSTATSMSNNITQSSIIISQFSTNNENYTTTSMHTSSDKISTETLNNSISTTTSILFSNSSTILKNNTTIISSDKDTHYHPVNPTIVCSTNKTEIICASITQPSISNSNNHWSSSVLKFNSTTVRSTLPSSAGSNETSINVPFSSSTESNTSTSSTSTSNSKMVRSTLPSSAGSNETSISVPFSSSTESNTSTSSTSTSNSKMVRSTLPSSAGSNETSINVPFSSSTESNTSTSSTSTSNSKTVRSTPFSSAGIIMTSLSQRNNKSASSYASSNSKCYNTADSCRKVHSTPSYLLTSSYTSEGVDYDCSLVSTKLKINDTNCVNNKHTTKSCLKTSVTTTIPTLEIKTARKSSSNTIGLHSYPTSSPNKSISSAPIIGYISSFKTIKTASPSYQTSDLTTITTITSLNNPGSTAVENTHESNDKSRKTSSNDISSKHSVIKETKDAVESSNKSHQTNTLKCSSIIIASSSHNSYESLGGTTLTLTLSKVYSPQNNDTLPFLEISEVNPSRTVLPESSKMMQYLTSTEERNKTARNTIATNIVSISTFHFEGEGNAIRMGYTQLLLMLIGIIVMNIGT",glycan array binding signal (z-score),[1],0.016
same,glycan array binding signal (z-score),[2],0.025
same,glycan array binding signal (z-score),[3],0.012
same,glycan array binding signal (z-score),[4],-0.209
same,glycan array binding signal (z-score),[5],0.047
same,glycan array binding signal (z-score),[6],0.042
same,glycan array binding signal (z-score),[7],0.041
same,glycan array binding signal (z-score),[8],-0.21
same,glycan array binding signal (z-score),[9],0.034
same,glycan array binding signal (z-score),[10],-0.043
same,glycan array binding signal (z-score),[11],0.044
same,glycan array binding signal (z-score),[12],-0.226
same,glycan array binding signal (z-score),[13],0.239
same,glycan array binding signal (z-score),[14],-0.163
same,glycan array binding signal (z-score),[15],-0.11
same,glycan array binding signal (z-score),[16],0.004
same,glycan array binding signal (z-score),[17],0.189
same,glycan array binding signal (z-score),[18],-0.196
same,glycan array binding signal (z-score),[19],-0.209
same,glycan array binding signal (z-score),[20],-0.345
same,glycan array binding signal (z-score),[21],-0.288
same,glycan array binding signal (z-score),[22],-0.219
same,glycan array binding signal (z-score),[23],-0.08
same,glycan array binding signal (z-score),[24],0.043
same,glycan array binding signal (z-score),[25],0.545
same,glycan array binding signal (z-score),[26],-0.07
same,glycan array binding signal (z-score),Gal(b1-4)GlcNAc6P,-0.111
same,glycan array binding signal (z-score),Gal(b1-6)Gal,-0.191
same,glycan array binding signal (z-score),Gal3S(b1-3)GalNAc,-0.116
same,glycan array binding signal (z-score),Gal3S(b1-3)GlcNAc,-0.163
